# Assay results as given in the supplement of paper PMC8728848.
# Some of the results follow.
# B1: MAA (Maackia amurensis), P0DKL3 (protein)
# chain: MATSNSKPTQVLLATFLTFFFLLLNNVNSSDELSFTINNFVPNEADLLFQGEASVSSTGVLQLTRVENGQPQKYSVGRALYAAPVRIWDNTTGSVASFSTSFTFVVKAPNPDITSDGLAFYLAPPDSQIPSGSVSKYLGLFNNSNSDSSNQIVAVELDTYFAHSYDPWDPNYRHIGIDVNGIESIKTVQWDWINGGVAFATITYLAPNKTLIASLVYPSNQTTFSVAASVDLKEILPEWVRVGFSAATGYPTEVETHDVLSWSFTSTLEANCDAATENNVHIARYTA
# Legend:
# Experiment in all cases: glycan array binding signal (z-score within array); higher = stronger binding
# Details in all cases: glycan notation: IUPAC condensed, linker removed
# [1] = target: Fuc(a1-2)[GalNAc(a1-3)]Gal(b1-3)GlcNAc(b1-2)Man(a1-3)[Fuc(a1-2)[GalNAc(a1-3)]Gal(b1-3)GlcNAc(b1-2)Man(a1-6)]Man(b1-4)GlcNAc(b1-4)[Fuc(a1-6)]GlcNAc
# Procedure, shortened: (§1)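 The binding signal is a Z-score computed within each array. Data were drawn from 3228 arrays in the Consortium for Functional Glycomics database, restricted to those with a known protein sequence. Scores were averaged over arrays of the same protein sequence at different concentrations or buffers, and over linkers, and negative values can be taken as non-binding.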
# [2] = target: Fuc(a1-2)[GalNAc(a1-3)]Gal(b1-3)GlcNAc(b1-3)GalNAc
# Procedure, shortened: as §1
# [3] = target: Fuc(a1-2)[GalNAc(a1-3)]Gal(b1-3)GlcNAc(b1-6)GalNAc
# Procedure, shortened: as §1
# [4] = target: Fuc(a1-2)[GalNAc(a1-3)]Gal(b1-4)Glc
# Procedure, shortened: as §1
# [5] = target: Fuc(a1-2)[GalNAc(a1-3)]Gal(b1-4)GlcNAc
# Procedure, shortened: as §1
# [6] = target: Fuc(a1-2)[GalNAc(a1-3)]Gal(b1-4)GlcNAc(b1-2)Man
# Procedure, shortened: as §1
# [7] = target: Fuc(a1-2)[GalNAc(a1-3)]Gal(b1-4)GlcNAc(b1-2)Man(a1-3)[Fuc(a1-2)[GalNAc(a1-3)]Gal(b1-4)GlcNAc(b1-2)Man(a1-6)]Man(b1-4)GlcNAc(b1-4)GlcNAc
# Procedure, shortened: as §1
# [8] = target: Fuc(a1-2)[GalNAc(a1-3)]Gal(b1-4)GlcNAc(b1-2)Man(a1-3)[Fuc(a1-2)[GalNAc(a1-3)]Gal(b1-4)GlcNAc(b1-2)Man(a1-6)]Man(b1-4)GlcNAc(b1-4)[Fuc(a1-6)]GlcNAc
# Procedure, shortened: as §1
# [9] = target: Fuc(a1-2)[GalNAc(a1-3)]Gal(b1-4)GlcNAc(b1-3)Gal(b1-4)GlcNAc
# Procedure, shortened: as §1
# [10] = target: Fuc(a1-2)[GalNAc(a1-3)]Gal(b1-4)GlcNAc(b1-3)Gal(b1-4)GlcNAc(b1-3)Gal(b1-4)GlcNAc
# Procedure, shortened: as §1
# [11] = target: Fuc(a1-2)[GalNAc(a1-3)]Gal(b1-4)GlcNAc(b1-3)GalNAc
# Procedure, shortened: as §1
# [12] = target: Fuc(a1-2)[GalNAc(a1-3)]Gal(b1-4)GlcNAc(b1-3)[Fuc(a1-2)[GalNAc(a1-3)]Gal(b1-4)GlcNAc(b1-6)]GalNAc
# Procedure, shortened: as §1
# [13] = target: Fuc(a1-2)[GalNAc(a1-3)]Gal(b1-4)GlcNAc(b1-6)GalNAc
# Procedure, shortened: as §1
# [14] = target: Fuc(a1-2)[GalNAc(a1-3)]Gal(b1-4)[Fuc(a1-3)]GlcNAc
# Procedure, shortened: as §1
# [15] = target: Fuc(a1-2)[GalNAc(a1-3)]Gal(b1-4)[Fuc(a1-3)]GlcNAc(b1-3)GalNAc
# Procedure, shortened: as §1
# [16] = target: Fuc(a1-2)[GalNAc(a1-4)]Gal(b1-4)GlcNAc
# Procedure, shortened: as §1
# [17] = target: Fuc(a1-2)[GalNAc(b1-3)]Gal
# Procedure, shortened: as §1
# Fuc(a1-3)GlcNAc = target: Fuc(a1-3)GlcNAc
# Procedure, shortened: as §1
# [18] = target: Fuc(a1-3)[Gal(b1-4)]Glc6S
# Procedure, shortened: as §1
# [19] = target: Fuc(a1-3)[Gal(b1-4)]GlcNAc
# Procedure, shortened: as §1
# [20] = target: Fuc(a1-3)[Gal(b1-4)]GlcNAc(b1-2)Man
# Procedure, shortened: as §1
# [21] = target: Fuc(a1-3)[Gal(b1-4)]GlcNAc(b1-2)Man(a1-3)[Fuc(a1-3)[Gal(b1-4)]GlcNAc(b1-2)Man(a1-6)]Man(b1-4)GlcNAc(b1-4)GlcNAc
# Procedure, shortened: as §1
# [22] = target: Fuc(a1-3)[Gal(b1-4)]GlcNAc(b1-2)Man(a1-3)[Fuc(a1-3)[Gal(b1-4)]GlcNAc(b1-2)Man(a1-6)]Man(b1-4)GlcNAc(b1-4)[Fuc(a1-6)]GlcNAc
# Procedure, shortened: as §1
# [23] = target: Fuc(a1-3)[Gal(b1-4)]GlcNAc(b1-3)Gal(b1-3)[Fuc(a1-4)]GlcNAc
# Procedure, shortened: as §1
# [24] = target: Fuc(a1-3)[Gal(b1-4)]GlcNAc(b1-3)Gal(b1-4)[Fuc(a1-3)]GlcNAc
# Procedure, shortened: as §1
# [25] = target: Fuc(a1-3)[Gal(b1-4)]GlcNAc(b1-3)Gal(b1-4)[Fuc(a1-3)]GlcNAc(b1-3)Gal(b1-4)[Fuc(a1-3)]GlcNAc
# Procedure, shortened: as §1
# [26] = target: Fuc(a1-3)[Gal(b1-4)]GlcNAc(b1-3)GalNAc
# Procedure, shortened: as §1
# [27] = target: Fuc(a1-3)[Gal(b1-4)]GlcNAc(b1-4)Gal(b1-4)[Fuc(a1-3)]GlcNAc
# Procedure, shortened: as §1
# [28] = target: Fuc(a1-3)[Gal(b1-4)]GlcNAc(b1-4)Gal(b1-4)[Fuc(a1-3)]GlcNAc(b1-4)Gal(b1-4)[Fuc(a1-3)]GlcNAc
# Procedure, shortened: as §1
# [29] = target: Fuc(a1-3)[Gal(b1-4)]GlcNAc(b1-6)GalNAc
# Procedure, shortened: as §1
# [30] = target: Fuc(a1-3)[Gal(b1-4)]GlcNAc(b1-6)[Gal(b1-3)GlcNAc(b1-3)]Gal(b1-4)Glc
# Procedure, shortened: as §1
# [31] = target: Fuc(a1-3)[Gal(b1-4)]GlcNAc6S
# Procedure, shortened: as §1
# [32] = target: Fuc(a1-3)[Gal3S(b1-4)]Glc
# Procedure, shortened: as §1
# [33] = target: Fuc(a1-3)[Gal3S(b1-4)]GlcNAc
# Procedure, shortened: as §1
# [34] = target: Fuc(a1-3)[Gal3S(b1-4)]GlcNAc6S
# Procedure, shortened: as §1
# [35] = target: Fuc(a1-3)[GalNAc(b1-4)]GlcNAc
# Procedure, shortened: as §1
# [36] = target: Fuc(a1-3)[GalNAc(b1-4)]GlcNAc6S
# Procedure, shortened: as §1
binder,measurement,setting,value
B1,glycan array binding signal (z-score),[1],-0.195
same,glycan array binding signal (z-score),[2],-0.239
same,glycan array binding signal (z-score),[3],-0.259
same,glycan array binding signal (z-score),[4],-0.217
same,glycan array binding signal (z-score),[5],-0.228
same,glycan array binding signal (z-score),[6],-0.272
same,glycan array binding signal (z-score),[7],-0.235
same,glycan array binding signal (z-score),[8],-0.241
same,glycan array binding signal (z-score),[9],-0.236
same,glycan array binding signal (z-score),[10],-0.059
same,glycan array binding signal (z-score),[11],-0.128
same,glycan array binding signal (z-score),[12],-0.3
same,glycan array binding signal (z-score),[13],-0.264
same,glycan array binding signal (z-score),[14],-0.067
same,glycan array binding signal (z-score),[15],0.725
same,glycan array binding signal (z-score),[16],0.253
same,glycan array binding signal (z-score),[17],-0.178
same,glycan array binding signal (z-score),Fuc(a1-3)GlcNAc,-0.221
same,glycan array binding signal (z-score),[18],-0.125
same,glycan array binding signal (z-score),[19],-0.197
same,glycan array binding signal (z-score),[20],-0.261
same,glycan array binding signal (z-score),[21],-0.16
same,glycan array binding signal (z-score),[22],0.363
same,glycan array binding signal (z-score),[23],-0.121
same,glycan array binding signal (z-score),[24],-0.227
same,glycan array binding signal (z-score),[25],-0.07
same,glycan array binding signal (z-score),[26],-0.03
same,glycan array binding signal (z-score),[27],-0.094
same,glycan array binding signal (z-score),[28],-0.223
same,glycan array binding signal (z-score),[29],-0.156
same,glycan array binding signal (z-score),[30],-0.176
same,glycan array binding signal (z-score),[31],-0.2
same,glycan array binding signal (z-score),[32],-0.167
same,glycan array binding signal (z-score),[33],-0.203
same,glycan array binding signal (z-score),[34],2.89
same,glycan array binding signal (z-score),[35],-0.191
same,glycan array binding signal (z-score),[36],-0.246
